Experiment [1] has as its target T1, Flag-IKKα (human (cloned from SHSY5Y cDNA)) (UniProt O15111).
T1 sequence: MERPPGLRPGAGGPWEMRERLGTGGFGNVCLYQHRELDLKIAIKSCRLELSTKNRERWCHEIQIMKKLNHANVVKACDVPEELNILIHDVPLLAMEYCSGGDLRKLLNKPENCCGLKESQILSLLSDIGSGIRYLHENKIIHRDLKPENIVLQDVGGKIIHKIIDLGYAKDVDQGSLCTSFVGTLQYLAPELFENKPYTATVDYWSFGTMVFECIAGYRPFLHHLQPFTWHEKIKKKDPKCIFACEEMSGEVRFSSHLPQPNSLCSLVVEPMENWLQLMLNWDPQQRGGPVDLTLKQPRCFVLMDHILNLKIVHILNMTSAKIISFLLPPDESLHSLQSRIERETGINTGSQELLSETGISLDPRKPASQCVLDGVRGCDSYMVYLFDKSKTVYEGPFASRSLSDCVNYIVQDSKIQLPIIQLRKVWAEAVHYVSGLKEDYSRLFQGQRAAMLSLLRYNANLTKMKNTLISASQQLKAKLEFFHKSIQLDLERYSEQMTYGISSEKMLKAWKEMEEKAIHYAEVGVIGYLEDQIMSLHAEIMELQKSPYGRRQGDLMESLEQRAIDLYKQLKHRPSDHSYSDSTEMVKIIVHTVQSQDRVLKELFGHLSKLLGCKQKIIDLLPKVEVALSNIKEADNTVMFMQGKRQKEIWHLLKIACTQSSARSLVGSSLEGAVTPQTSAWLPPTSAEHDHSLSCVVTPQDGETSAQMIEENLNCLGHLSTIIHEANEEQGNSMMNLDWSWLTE
Nature of the experiment: co-IP; HEK293T co-transfected with an HA-tagged and a Flag-tagged protein; whole cell lysate in low-salt lysis buffer (50 mM Hepes pH 7.5, 150 mM NaCl, 1% Triton X-100) on anti-Flag agarose overnight at 4 °C, six washes, immunoblot.

The chains behind the UniProt entries cited, without tags or fusion partners.
UniProt Q9Y6K9: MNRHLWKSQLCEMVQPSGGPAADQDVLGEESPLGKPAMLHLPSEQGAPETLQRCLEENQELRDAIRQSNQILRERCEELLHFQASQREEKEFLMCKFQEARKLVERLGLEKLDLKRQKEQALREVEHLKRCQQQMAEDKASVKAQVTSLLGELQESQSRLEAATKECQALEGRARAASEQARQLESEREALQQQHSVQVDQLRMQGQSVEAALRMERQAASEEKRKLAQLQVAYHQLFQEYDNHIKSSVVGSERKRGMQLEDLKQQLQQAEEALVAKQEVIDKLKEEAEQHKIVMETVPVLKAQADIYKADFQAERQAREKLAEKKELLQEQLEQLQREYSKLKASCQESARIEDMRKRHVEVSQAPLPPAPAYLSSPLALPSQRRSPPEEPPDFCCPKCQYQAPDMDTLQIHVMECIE

In experiment [2] the target is Flag-NEMO (human (cloned from SHSY5Y cDNA)) (UniProt Q9Y6K9). The description is as above.
For experiment [3], the target named is T2, Flag-TAB1 (human (cloned from SHSY5Y cDNA)) (UniProt Q15750).
T2 sequence: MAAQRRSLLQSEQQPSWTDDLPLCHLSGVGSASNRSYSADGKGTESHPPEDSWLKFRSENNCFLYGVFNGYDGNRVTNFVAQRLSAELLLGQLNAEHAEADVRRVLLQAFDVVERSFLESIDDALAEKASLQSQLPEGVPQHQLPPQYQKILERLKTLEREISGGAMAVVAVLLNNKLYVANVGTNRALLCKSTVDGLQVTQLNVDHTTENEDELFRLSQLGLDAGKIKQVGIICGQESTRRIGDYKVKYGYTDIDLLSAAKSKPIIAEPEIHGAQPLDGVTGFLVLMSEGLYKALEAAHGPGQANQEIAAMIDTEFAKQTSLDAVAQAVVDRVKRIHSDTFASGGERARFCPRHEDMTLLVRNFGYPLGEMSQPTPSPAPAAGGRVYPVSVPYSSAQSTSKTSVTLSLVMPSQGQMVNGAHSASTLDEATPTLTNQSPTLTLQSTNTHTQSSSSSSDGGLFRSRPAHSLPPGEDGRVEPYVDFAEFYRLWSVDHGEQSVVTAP
Described as above.

Experiment [4] concerns the target T3, Flag-TAB2 (human (cloned from SHSY5Y cDNA)) (UniProt Q9NYJ8).
T3 sequence: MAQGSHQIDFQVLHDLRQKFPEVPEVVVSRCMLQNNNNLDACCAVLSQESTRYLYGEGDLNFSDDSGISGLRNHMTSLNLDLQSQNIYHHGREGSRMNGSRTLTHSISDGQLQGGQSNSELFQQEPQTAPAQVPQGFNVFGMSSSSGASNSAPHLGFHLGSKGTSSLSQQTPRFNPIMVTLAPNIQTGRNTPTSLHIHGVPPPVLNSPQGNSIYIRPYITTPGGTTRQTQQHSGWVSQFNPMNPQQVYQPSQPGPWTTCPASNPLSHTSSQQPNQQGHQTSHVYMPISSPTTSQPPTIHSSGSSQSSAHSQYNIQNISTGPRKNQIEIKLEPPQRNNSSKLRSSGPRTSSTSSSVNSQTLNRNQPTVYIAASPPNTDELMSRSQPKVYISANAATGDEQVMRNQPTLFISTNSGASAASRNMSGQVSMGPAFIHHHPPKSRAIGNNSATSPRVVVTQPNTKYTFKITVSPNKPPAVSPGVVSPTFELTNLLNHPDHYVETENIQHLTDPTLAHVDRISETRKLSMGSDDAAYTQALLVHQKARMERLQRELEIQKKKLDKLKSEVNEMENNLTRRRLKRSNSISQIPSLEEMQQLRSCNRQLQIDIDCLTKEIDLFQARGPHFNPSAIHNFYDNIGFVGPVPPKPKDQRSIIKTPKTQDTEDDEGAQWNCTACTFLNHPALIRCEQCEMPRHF
Described as above.

In experiment [5] the target is T4, Flag-TAK1 (human (cloned from SHSY5Y cDNA)) (UniProt O43318).
T4 sequence: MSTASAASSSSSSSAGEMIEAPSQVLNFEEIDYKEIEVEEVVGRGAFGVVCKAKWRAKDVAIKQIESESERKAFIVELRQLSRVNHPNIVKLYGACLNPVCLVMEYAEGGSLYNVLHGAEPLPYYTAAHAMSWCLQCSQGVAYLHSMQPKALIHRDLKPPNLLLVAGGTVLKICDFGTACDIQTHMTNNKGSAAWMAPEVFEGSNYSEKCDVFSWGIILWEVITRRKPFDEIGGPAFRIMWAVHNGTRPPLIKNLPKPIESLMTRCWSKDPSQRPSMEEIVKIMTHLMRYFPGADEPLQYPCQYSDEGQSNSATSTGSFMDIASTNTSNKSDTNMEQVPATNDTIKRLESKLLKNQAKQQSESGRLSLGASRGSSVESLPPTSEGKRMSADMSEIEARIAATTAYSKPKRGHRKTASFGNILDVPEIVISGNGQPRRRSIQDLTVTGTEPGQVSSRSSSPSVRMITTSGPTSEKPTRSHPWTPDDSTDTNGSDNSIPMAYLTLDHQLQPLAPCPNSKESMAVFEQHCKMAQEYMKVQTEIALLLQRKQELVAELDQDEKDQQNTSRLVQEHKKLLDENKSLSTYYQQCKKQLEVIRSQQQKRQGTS
The experiment is described as above.

Experiment [6] concerns the target T5, Flag-TRAF2 (human (cloned from SHSY5Y cDNA)) (UniProt Q12933).
T5 sequence: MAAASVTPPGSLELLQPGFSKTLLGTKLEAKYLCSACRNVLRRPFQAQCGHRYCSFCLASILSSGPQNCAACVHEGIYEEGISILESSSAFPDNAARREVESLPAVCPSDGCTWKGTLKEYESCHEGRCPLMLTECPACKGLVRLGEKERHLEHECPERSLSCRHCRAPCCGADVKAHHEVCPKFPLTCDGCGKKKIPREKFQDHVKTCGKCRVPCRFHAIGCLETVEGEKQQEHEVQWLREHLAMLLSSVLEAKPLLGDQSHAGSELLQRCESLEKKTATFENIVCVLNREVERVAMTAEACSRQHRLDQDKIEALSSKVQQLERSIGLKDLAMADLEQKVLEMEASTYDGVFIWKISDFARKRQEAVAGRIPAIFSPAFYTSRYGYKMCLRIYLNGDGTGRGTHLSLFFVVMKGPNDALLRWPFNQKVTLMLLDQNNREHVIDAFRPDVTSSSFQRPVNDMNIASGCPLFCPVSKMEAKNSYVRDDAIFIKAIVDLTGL
Described as above.

Experiment [7] has as its target T4, Flag-TAK1 (human (cloned from SHSY5Y cDNA)). Nature of the experiment: co-IP; overexpressed TAK1 with endogenous CHIP, HEK293T or SHSY5Y cells, immunoblot. (In general: Immunoblotting shows a protein as a band on a membrane.)
The target in experiment [8] is T6, endogenous TAK1 (human (endogenous in HEK293T or SHSY5Y)) (UniProt O43318).
T6 sequence: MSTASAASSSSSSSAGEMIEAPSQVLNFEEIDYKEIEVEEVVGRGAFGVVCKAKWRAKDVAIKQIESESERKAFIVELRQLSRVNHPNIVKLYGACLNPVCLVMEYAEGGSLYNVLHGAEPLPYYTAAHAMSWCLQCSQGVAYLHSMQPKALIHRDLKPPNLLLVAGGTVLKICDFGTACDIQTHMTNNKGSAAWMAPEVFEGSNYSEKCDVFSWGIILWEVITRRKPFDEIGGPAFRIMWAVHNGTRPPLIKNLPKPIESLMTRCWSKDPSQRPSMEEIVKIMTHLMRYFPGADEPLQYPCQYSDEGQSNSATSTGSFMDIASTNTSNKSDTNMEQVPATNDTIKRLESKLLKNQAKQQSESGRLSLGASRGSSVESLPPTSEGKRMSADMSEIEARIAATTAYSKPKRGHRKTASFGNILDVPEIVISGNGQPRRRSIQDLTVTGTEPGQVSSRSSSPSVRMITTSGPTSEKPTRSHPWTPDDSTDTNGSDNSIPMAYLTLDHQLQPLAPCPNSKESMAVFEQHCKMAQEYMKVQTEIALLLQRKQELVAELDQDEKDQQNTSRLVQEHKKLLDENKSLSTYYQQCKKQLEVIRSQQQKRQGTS
Nature of the experiment: co-IP; endogenous proteins, HEK293T or SHSY5Y lysate incubated with indicated antibodies overnight at 4 °C, Dynabeads protein G 2 h, immunoblot.

Experiment [9] concerns the target Flag-NEMO (human (cloned from SHSY5Y cDNA)) (UniProt Q9Y6K9). Nature of the experiment: co-IP; HEK293T (WT or CHIP-/-) transfected with TAK1 and a partner, with or without CHIP, CHIP T246M or CHIP-specific siRNA; anti-Flag beads, blotted with anti-HA antibody.
The target of experiment [10] is Flag-CHIP (human (cloned from SHSY5Y cDNA)) (UniProt Q9UNE7). Nature of the experiment: co-IP; HEK293T co-transfected with an HA-tagged and a Flag-tagged protein; whole cell lysate in low-salt lysis buffer (50 mM Hepes pH 7.5, 150 mM NaCl, 1% Triton X-100) on anti-Flag agarose overnight at 4 °C, six washes, immunoblot.

Here are results for 3 molecules from PMC8448743.

Results are given in words; binding and its absence hold for the method and conditions named. Binding seen in cells or lysates may run through a third protein. Some entries that bind do so weakly or less than the wild type. For some of these results: Where a sequence is shown, tags or fusion partners need not be part of it.

Take “HA-CHIP (carboxyl terminus of HSC70-interacting protein) (from UniProt Q9UNE7 1-303)”: the binding result in [1] is listed as “no binding”; in experiment [2] it was “no binding”; in experiment [3], “no binding”; in [4], “no binding”; in experiment [5] it was “binds”; in experiment [6], “no binding”.
Turning to “endogenous CHIP (from UniProt Q9UNE7 1-303)”, the binding result in experiment [7] and in experiment [8] was “binds” in each case.

B1: HA-TAK1 (protein, UniProt O43318 1-606)
chain: MSTASAASSSSSSSAGEMIEAPSQVLNFEEIDYKEIEVEEVVGRGAFGVVCKAKWRAKDVAIKQIESESERKAFIVELRQLSRVNHPNIVKLYGACLNPVCLVMEYAEGGSLYNVLHGAEPLPYYTAAHAMSWCLQCSQGVAYLHSMQPKALIHRDLKPPNLLLVAGGTVLKICDFGTACDIQTHMTNNKGSAAWMAPEVFEGSNYSEKCDVFSWGIILWEVITRRKPFDEIGGPAFRIMWAVHNGTRPPLIKNLPKPIESLMTRCWSKDPSQRPSMEEIVKIMTHLMRYFPGADEPLQYPCQYSDEGQSNSATSTGSFMDIASTNTSNKSDTNMEQVPATNDTIKRLESKLLKNQAKQQSESGRLSLGASRGSSVESLPPTSEGKRMSADMSEIEARIAATTAYSKPKRGHRKTASFGNILDVPEIVISGNGQPRRRSIQDLTVTGTEPGQVSSRSSSPSVRMITTSGPTSEKPTRSHPWTPDDSTDTNGSDNSIPMAYLTLDHQLQPLAPCPNSKESMAVFEQHCKMAQEYMKVQTEIALLLQRKQELVAELDQDEKDQQNTSRLVQEHKKLLDENKSLSTYYQQCKKQLEVIRSQQQKRQGTS
For the molecule B1, the binding entry in experiment [9] and in experiment [10] was “binds” in each case.
